{
  "source": "PubChem BioAssay AID686979",
  "about": "(National Center for Advancing Translational Sciences (NCATS), 2013)",
  "note": "The whole screen tested about 420,000 compounds, of which about 50,000 (12%) were called active. The inconclusive results got no clear call from the source; some entries with a clear call stand among them for comparison. The call rests on the fitted dose curve; in most records, active means well fitted inhibition curve with a large enough effect; inconclusive means small, poorly fitted or top-dose-only effect; inactive means flat fitted curve, though single readings scatter. No potency is given beside an inconclusive call; the fits are too rough. Potency means the concentration at half of the fitted maximal effect; tags describe the fitted curve by direction and shape.",
  "data": [
    {"assay": "qHTS for Inhibitors of human tyrosyl-DNA phosphodiesterase 1 (TDP1): qHTS in cells in presence of CPT; further: nearly all actives have a fitted effect of over 55% in size", "details": "chicken DT40 Tdp1-/-;hTDP1 cells + 20 nM CPT, ATP luminescence, 48 h; series mostly up to 46.2 µM", "how_it_was_run": "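Chicken DT40 Tdp1-/- cells complemented with human TDP1, 400 cells/well, exposed to compounds plus 20 nM camptothecin for at least 48 h at 37 C; viability read as ATP content by CellTiter-Glo luminescence.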", "values": [
      {"smiles": "Cc1c(-c2nsc(NC(=O)c3cccc(Cl)c3)n2)nnn1-c1ccccc1C(F)(F)F", "Potency": "inconclusive [inhibitor, single point]"},
      {"smiles": "CCOC1=C2CN(S(=O)(=O)c3ccc(Cl)cc3)[C@H](c3ccccc3)C[C@@H]2N(S(=O)(=O)c2ccc(C)cc2)[C@H](c2ccccc2)C1", "Potency": "inactive"},
      {"smiles": "Cc1cc(=O)oc2c3c4c(cc12)OCCN4CCC3", "Potency": "inconclusive [inhibitor, single point]"},
      {"smiles": "CC(C)N1CCc2c(sc(NC(=O)c3ccc(S(=O)(=O)N4CCc5ccccc54)cc3)c2C(N)=O)C1", "Potency": "active: 23.1 µM"},
      {"smiles": "Cn1c2ccccc2c2nnc(SCC(=O)Nc3cccc(O)c3)nc21", "Potency": "inconclusive [inhibitor, single point]"},
      {"smiles": "COCCCNC(=O)CSc1nc2ccccc2c(=O)n1Cc1ccc2c(c1)OCO2", "Potency": "inactive"},
      {"smiles": "O=S(=O)(c1ccc(Nc2ccc3c(c2)OCO3)nc1)N1CCOCC1", "Potency": "inactive"},
      {"smiles": "CC(=O)c1c(C)[nH]c(C(=O)OCC(=O)Nc2sc3c(c2C#N)CCCC3)c1C", "Potency": "active: 16.4 µM"},
      {"smiles": "CN1CCN(Cn2cc(/C=C/C(=O)c3ccccc3)c3ccccc32)CC1", "Potency": "inactive"},
      {"smiles": "COc1cc(C(=O)OCC(=O)Nc2ccc(S(=O)(=O)N3CCCC3)cc2)cc(OC)c1OC", "Potency": "inconclusive [inhibitor, partial curve]"},
      {"smiles": "CCOC(=O)N/N=C\\c1ccc([N+](=O)[O-])s1", "Potency": "active: 16.4 µM"},
      {"smiles": "COc1ccc(/C=C2\\SC(=S)N(CCC(=O)N3CCOCC3)C2=O)cc1", "Potency": "inconclusive [inhibitor, single point]"},
      {"smiles": "COc1cc(/C=N/NC(=O)c2cccc(C)c2)ccc1OCC(=O)Nc1ccccc1", "Potency": "inconclusive [inhibitor, partial curve]"},
      {"smiles": "CCOC(=O)C1CCN(CCC(=O)Nc2ccc(F)cc2)CC1", "Potency": "inactive"},
      {"smiles": "CCCc1cc(=O)oc2c(C)c(OC3CCCCC3=O)ccc12", "note": "(configuration not stated)", "Potency": "inconclusive [inhibitor, single point]"},
      {"smiles": "Cc1ccc(C)c(OCC(=O)Nc2ccc(S(=O)(=O)Nc3onc(C)c3C)cc2)c1C", "Potency": "inactive"},
      {"smiles": "Clc1ccccc1OCCCCN1CCCCC1", "Potency": "inactive"},
      {"smiles": "Cc1cc(NC(=O)c2cccc(Cl)c2)n[nH]1", "Potency": "inactive"},
      {"smiles": "CCCc1c(-c2ccc(O)cc2)nn(-c2ccc(O)cc2)c1-c1ccc(O)cc1", "Potency": "inconclusive [inhibitor, single point]"},
      {"smiles": "C(=N\\N1CCN(C2c3ccccc3-c3ccccc32)CC1)/c1cccs1", "Potency": "inactive"},
      {"smiles": "Cn1cc(Cl)cc(C(=O)Nc2ccccc2)c1=O", "Potency": "inactive"},
      {"smiles": "O=C(Nc1ccccc1N1CCN(c2ccc(F)cc2)CC1)C12CC3CC(CC(C3)C1)C2", "Potency": "inconclusive [inhibitor, single point]"}
    ]}
  ]
}
